About 230 (0.21%) of roughly 110,000 compounds showed an effect of 50% or more. The list shows a part of the results.
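Also: 30 min substrate incubation versus DMSO and 10 µM JCP410 controls.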

The target of this assay is DPAP1 (Plasmodium falciparum, UniProt Q8IIJ9). As to the kind of experiment: primary screen, percent inhibition; read by cleavage of a fluorogenic dipeptide substrate; higher = more effect of the substance. The arrangement: species or system P. falciparum D10 trophozoite lysates; single well.
Sequence of DPAP1 (Q8IIJ9 whole entry, looked up): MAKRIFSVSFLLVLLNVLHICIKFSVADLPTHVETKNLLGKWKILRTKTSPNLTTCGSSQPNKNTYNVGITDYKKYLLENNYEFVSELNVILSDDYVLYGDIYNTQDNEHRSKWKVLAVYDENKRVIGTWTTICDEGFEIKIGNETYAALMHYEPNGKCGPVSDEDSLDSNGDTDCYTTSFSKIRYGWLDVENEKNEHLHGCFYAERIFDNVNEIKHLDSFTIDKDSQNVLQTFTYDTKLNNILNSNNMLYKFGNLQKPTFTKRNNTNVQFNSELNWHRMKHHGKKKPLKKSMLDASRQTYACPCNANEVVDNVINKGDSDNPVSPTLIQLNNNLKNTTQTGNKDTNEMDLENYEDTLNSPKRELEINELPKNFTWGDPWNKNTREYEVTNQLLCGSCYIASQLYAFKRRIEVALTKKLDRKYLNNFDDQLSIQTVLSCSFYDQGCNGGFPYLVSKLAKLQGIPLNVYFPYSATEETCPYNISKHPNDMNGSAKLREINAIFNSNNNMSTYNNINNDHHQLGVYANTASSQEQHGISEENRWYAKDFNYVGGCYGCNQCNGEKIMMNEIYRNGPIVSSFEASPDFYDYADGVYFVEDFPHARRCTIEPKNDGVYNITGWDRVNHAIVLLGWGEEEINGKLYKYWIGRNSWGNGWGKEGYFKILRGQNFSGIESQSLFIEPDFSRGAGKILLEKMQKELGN
Take `Cn1cnnc1SCC(=O)n1c2c(c3ccccc31)CCCC2`: the “% Inhibition @ 10 uM” value was 5.23%.
The same measure for `c1ccc2c(c1)n(CCN1CCCCC1)c1ncnn21`: 1.72%; for `Cc1cc(Cl)ccc1NC(=O)CN1CCN(CC/N=C/C2=C(O)CC(C)(C)CC2=O)CC1`: -4.76%; for `O=C1/C(=C\c2ccc(Br)cc2)S(=O)(=O)C(c2ccccc2)N1c1ccccc1` (stereo not drawn): -2.77%.
As for `CCC1=NN(C(=O)Cc2ccc(OC)c(OC)c2)C(O)(C(F)(F)F)C1` (stereo not drawn), the “% Inhibition @ 10 uM” value is recorded as -2.94%.
`O=C(NCCCN1CCCC1=O)c1cc2c(s1)-c1ccccc1S(=O)(=O)C2`: the “% Inhibition @ 10 uM” value is reported as -10%.
In the case of `COc1ccc(-c2cc(-c3ccccc3)c(C#N)c(S(C)=O)n2)cc1` (stereo not drawn) it was 2.95%.
For the compound `Oc1nc(Nc2ccc3ccccc3c2)nc(N2CCOCC2)n1`, the “% Inhibition @ 10 uM” value was -5.52%.
Turning to `Cc1cc(NC(=O)c2ccc(COc3ccc(Cl)c(C)c3)o2)no1`, the “% Inhibition @ 10 uM” value is listed as 0.0504%.
As to `O=C(COc1cccc(Cl)c1)Nc1ccc2ccccc2c1`, the “% Inhibition @ 10 uM” value was determined as 0.145%.
As to `COc1cc(NC(=O)Cc2ccc(Cl)cc2)ccc1NC(=O)c1ccco1`, the “% Inhibition @ 10 uM” value is listed as -5.7%.
With `CCOCCCNC(=O)C1CCN(S(=O)(=O)c2c(C)noc2/C=C\c2ccc(OC)cc2)CC1`, the “% Inhibition @ 10 uM” value is recorded as -4.96%.
On to `Cc1ccccc1S(=O)(=O)Cc1ccc(C(=O)NC(C)c2ccccc2)o1` (stereo not drawn), for which the “% Inhibition @ 10 uM” value was found to be 0.458%.
The same measure for `Cc1ccc2c(c1)C(SCC(=O)NCCc1ccccc1)CC1(CCCC1)O2` (stereo not drawn): -0.971%; for `CCOc1cc(CNc2ccccc2)ccc1OC`: -0.48%; for `Cc1cc(-c2ccc(C)c(S(=O)(=O)N3CCCCC3C)c2)on1` (stereo not drawn): -8.89%.
The same measure for `O=C(Nc1ccc(S(=O)(=O)N2CCCCC2)cc1)c1ccc(Cl)cc1`: 5.66%.
With `OCc1cnc(O)nc1O`, the “% Inhibition @ 10 uM” value is recorded as 1.91%.
In the case of `Cc1cccc(NC(=O)[C@@H]2C3C=CC(C3)[C@@H]2C(=O)O)c1C` (stereo partly drawn) it was -8.21%.
In the case of `CN1CCN(C(=O)COc2ccccc2Cl)CC1` it was 0.727%; in that of `COc1cc(OC)cc(C2=N/C(=C\c3ccc(C)o3)C(=O)O2)c1`, 1.81%.
The same measure for `CCN(CC)c1ccc(C2C3=C(O)CCCC3=NC(C)=C2C(=O)Nc2c(F)cccc2F)cc1` (stereo not drawn): -5.72%; for `Cc1ccc(C2=NS(=O)(=O)N(C)C(C(=O)N3CC4(C)CC3CC(C)(C)C4)=C2)cc1` (stereo not drawn): 3.92%.
As for `c1ccc(-c2cn3ccsc3n2)cc1`, the “% Inhibition @ 10 uM” value is recorded as 1.54%.
The same measure for `Oc1ccc(C2=Nn3c(nnc3-c3ccccc3Br)SC2)cc1O`: -0.112%; for `COC(=O)c1ccc(-n2c(=O)c3cc4c(=O)n(-c5ccc(C(=O)OC)cc5)c(=O)c4cc3c2=O)cc1`: -3.16%.
The same measure for `Cc1ccc2c(c1)c1c3n2CCN(CC(O)c2ccc(Br)cc2)C3CCC1` (stereo not drawn): 1.08%; for `CN1CCN(C2=NC(=O)/C(=C/c3ccc(Cl)c(Cl)c3)S2)CC1`: 7.76%.
In the case of `C=CCn1c(=N)n(CCCOc2ccccc2)c2ccccc21` it was -4.39%; in that of `CCC(C)NC(=O)c1ccc2c(SCC(=O)O)c3c(nc2c1)CCCC3` (stereo not drawn), -1.84%.
Take `Cc1c(C(=O)N2CCNCC2)oc2ccccc12`: the “% Inhibition @ 10 uM” value is listed as -0.671%.
As to `COc1ccc(N2CCN(C(=O)CC#N)CC2)cc1`, the “% Inhibition @ 10 uM” value was -0.641%.
In the case of `COc1ccccc1/C=c1\sc2nc(-c3ccccc3OC)nn2c1=O` it was 0.561%.
With `COc1cc(C=O)ccc1Oc1nc2ccccc2n2cnnc12`, the “% Inhibition @ 10 uM” value is recorded as 1.49%.
In the case of `CC(C)C(=O)n1nc(-c2ccccc2)nc1NCc1ccc(F)cc1` it was -2.91%; in that of `Cc1c(NC(=O)c2ccc(C)c3ccccc23)cccc1-c1nc2ncccc2o1`, 0.0538%; in that of `CCCN(CCC)C(=O)c1cc(-c2ccco2)[nH]n1`, 3.97%.
The same measure for `O=S(=O)(c1ccccc1F)N1CCN(c2ccc(Cl)c(Cl)c2)CC1`: -2.22%; for `CC(=O)COc1ccccc1OCC(=O)O`: -0.0267%.
In the case of `Cc1ccc(C(=O)O)cc1S(=O)(=O)N1CCCCC1` it was 4.12%.
Take `CCOC(=O)c1c(C)c(-c2ccccc2)n(CC(=O)Nc2nnc(SCC)s2)c1C`: the “% Inhibition @ 10 uM” value is 4.88%.
The same measure for `CCOC(=O)/C=C(\C)N1N=C2c3cc(OC)ccc3CCC2C1c1ccc(F)cc1` (stereo not drawn): 6.33%; for `COc1cc(N(CC(=O)N2CCCCC2)S(=O)(=O)c2ccccc2)cc(OC)c1OC`: 0.231%; for `COc1ccc(CN2CCN(Cc3ccccc3)CC2)cc1Br`: 1.34%.
The same measure for `COc1ccccc1NC(=O)c1c(C)nc(Nc2nc3ccccc3o2)nc1C`: -6.66%.
In the case of `CCC(C)NC(=O)CN1CCN(Cc2cccc(C)c2)C1=O` (stereo not drawn) it was -4.76%.
Regarding `O=C(Nc1cccc(F)c1)c1cc(-c2ccco2)nc2ccccc12`, the “% Inhibition @ 10 uM” value is -1.74%.
The same measure for `O=C(c1ccco1)N1CCN(C(=O)C2CC(c3ccccc3F)=NO2)CC1` (stereo not drawn): 7.39%; for `CC(Oc1ccccc1F)C(=O)Nc1sc2c(c1C(=O)NCc1ccco1)CCCC2` (stereo not drawn): 1.57%.
Take `Cc1cc(C)c2nc3s/c(=C\c4ccco4)c(=O)n3c2c1`: the “% Inhibition @ 10 uM” value was -3.38%.
As for `CCC(C)C(=O)NCCc1ccc(S(N)(=O)=O)cc1` (stereo not drawn), the “% Inhibition @ 10 uM” value is listed as 2.95%.

(Values after article PMC6919601, “Identification of Plasmodium dipeptidyl aminopeptidase allosteric inhibitors by high throughput screening” (PLoS ONE, 2019).)
